Data on 27 compounds can be found in the antibiotic and cytotoxicity screens of Wong et al. (2023).

Molecules are shown by their SMILES. Some of the results follow.

One test deals with HSkMC. The test can be described thus: cytotoxicity call (relative viability < 0.9). The following applies: 10 µM.
The subject of a further test is HepG2. The test can be described thus: cytotoxicity call (relative viability < 0.9). As to conditions: 10 µM.
For a further test, the system named is S. aureus RN4220. The test is described as follows: growth inhibition call (relative growth <= 0.2). As to conditions: 50 µM.

For `CCCC(=O)Nc1ccc2c(c1)OC[C@@H](C)N(S(=O)(=O)c1cn(C)cn1)C[C@@H](C)[C@H](OC)CN(C)C2=O`, the cytotoxicity call with HSkMC and with HepG2 was “inactive” each time. Besides, the growth inhibition call with S. aureus RN4220 is “inactive”.
In the case of `CCO[C@@H]1OC(C(=O)N2CCN(Cc3ccccc3)CC2)=C[C@H](c2cn(C(C)=O)c3ccccc23)[C@H]1CCCOC(=O)NCCCCCC(=O)NO`, the cytotoxicity call in the test with HSkMC and in the test on HepG2 was “inactive” throughout. Further, the growth inhibition call in the test on S. aureus RN4220 is “inactive”.
Consider `C[C@H](NC(=O)C[C@@H]1CC[C@H](NC(=O)CN2CCOCC2)[C@@H](CO)O1)c1ccccc1`, for which the cytotoxicity call in the test with HSkMC and in the test with HepG2 was “inactive” throughout. Moreover, the growth inhibition call with S. aureus RN4220 was “inactive”.
With `C[C@@H]1CCCCO[C@H](CN(C)S(=O)(=O)c2cn(C)cn2)[C@H](C)CN([C@@H](C)CO)C(=O)c2cc(NS(=O)(=O)c3cn(C)cn3)ccc2O1`, the cytotoxicity call with HSkMC and in the test on HepG2 was “inactive” in each case. The growth inhibition call with S. aureus RN4220 is “inactive”.
For `Cc1cccc(O)c1`, the cytotoxicity call in the test on HSkMC and with HepG2 was “inactive” throughout. Further, the growth inhibition call with S. aureus RN4220 is “inactive”.
Regarding `COCC(=O)N(C)C[C@H]1Oc2cc(C#CC(C)(C)O)ccc2S(=O)(=O)N([C@H](C)CO)C[C@@H]1C`, the cytotoxicity call in the test on HSkMC and in the test with HepG2 was “inactive” throughout. Moreover, the growth inhibition call with S. aureus RN4220 was “inactive”.
For `COc1ccc(S(=O)(=O)N(C)C[C@H]2OCCCC[C@H](C)Oc3ccc(NC(=O)CCC(F)(F)F)cc3C(=O)N([C@H](C)CO)C[C@H]2C)cc1`, the cytotoxicity call with HSkMC and in the test on HepG2 was “inactive” each time. Besides, the growth inhibition call in the test with S. aureus RN4220 was “inactive”.
For `C[C@H](CO)N1C[C@H](C)[C@@H](CN(C)C(=O)c2ccccc2)OCCCC[C@H](C)Oc2ccc(NS(=O)(=O)c3ccc(F)cc3)cc2C1=O`, the cytotoxicity call in the test with HSkMC and in the test on HepG2 was “inactive” in each case. In the test with S. aureus RN4220, the growth inhibition call is “inactive”.
With `C[C@@H]1CN([C@@H](C)CO)C(=O)c2cccc(NS(=O)(=O)c3ccc(F)cc3)c2O[C@@H]1CN(C)S(=O)(=O)c1ccccc1`, the cytotoxicity call with HSkMC and in the test on HepG2 was “inactive” each time. Also, the growth inhibition call in the test on S. aureus RN4220 was “inactive”.
As to `COc1ccc(C#Cc2cnc3c(c2)C(=O)N([C@@H](C)CO)C[C@@H](C)[C@H](CN(C)C(=O)CN(C)C)O3)cc1`, the cytotoxicity call in the test on HSkMC and in the test with HepG2 was “inactive” throughout. Further, in the test with S. aureus RN4220, the growth inhibition call is “inactive”.
Regarding `COc1ncccc1N`, the cytotoxicity call in the test with HSkMC and in the test on HepG2 was “inactive” each time. Moreover, in the test on S. aureus RN4220, the growth inhibition call is “inactive”.
`C[C@@H]1CCCCO[C@@H](CN(C)S(=O)(=O)c2ccc(Cl)cc2)[C@@H](C)CN([C@@H](C)CO)C(=O)c2cc(NS(=O)(=O)c3ccccc3)ccc2O1`: the cytotoxicity call in the test with HSkMC and in the test with HepG2 was “inactive” each time. Moreover, the growth inhibition call with S. aureus RN4220 is “inactive”.
Consider `N[C@H](C(=O)O)c1ccc(C(=O)O)c(C(=O)O)c1`, for which the cytotoxicity call with HSkMC and in the test on HepG2 was “inactive” throughout. Besides, in the test on S. aureus RN4220, the growth inhibition call is “inactive”.
For `C[C@H](CO)N1C[C@H](C)[C@H](CN(C)Cc2ccc(F)cc2)Oc2cc(C#CC(C)(C)O)ccc2S1(=O)=O`, the cytotoxicity call with HSkMC and in the test with HepG2 was “inactive” in each case. The growth inhibition call with S. aureus RN4220 was “inactive”.
For the compound `O=C(Nc1ncc(SCCN2CCCC2)s1)[C@]1(c2ccc(S(=O)(=O)C3CC3)cc2)C[C@H]1C1CCCCC1`, the cytotoxicity call with HSkMC and in the test on HepG2 was “active” each time. For the same compound, the growth inhibition call in the test with S. aureus RN4220 is “inactive”.
Regarding `O=C(C[C@@H]1CC[C@@H](NC(=O)c2ccc(F)cc2)[C@H](CO)O1)NCc1ccncn1`, the cytotoxicity call in the test with HSkMC and with HepG2 was “inactive” each time. Further, the growth inhibition call in the test on S. aureus RN4220 was “inactive”.
With `CCO[C@@H]1OC(=O)C[C@@H]1NC(=O)[C@@H]1CCCN1C(=O)[C@@H](NC(=O)c1ccc(N)c(Cl)c1)C(C)(C)C`, the cytotoxicity call in the test with HSkMC and with HepG2 was “inactive” throughout. For the same compound, in the test on S. aureus RN4220, the growth inhibition call was “inactive”.
Turning to `C[C@H]1CN([C@@H](C)CO)C(=O)c2cccc(NS(=O)(=O)c3cn(C)cn3)c2O[C@@H]1CN(C)Cc1ccncc1`, the cytotoxicity call with HSkMC and with HepG2 was “inactive” each time. Moreover, the growth inhibition call in the test with S. aureus RN4220 was “inactive”.
On to `C[C@H](CO)N1C[C@H](C)[C@H](CN(C)Cc2ccc(C(=O)O)cc2)Oc2ccc(NC(=O)C3CC3)cc2C1=O`, for which the cytotoxicity call with HSkMC and with HepG2 was “inactive” each time. In addition, the growth inhibition call in the test on S. aureus RN4220 is “inactive”.
Regarding `Nc1nc(Cl)nc2c1ncn2[C@H]1C[C@@H](O)[C@@H](CO)O1`, the cytotoxicity call in the test on HSkMC and with HepG2 was “inactive” throughout. Moreover, the growth inhibition call with S. aureus RN4220 was “inactive”.
Take `C[C@H](CO)N1C[C@H](C)[C@H](CN(C)Cc2ccc(C(F)(F)F)cc2)OCCCC[C@H](C)Oc2ccc(NS(=O)(=O)c3ccccc3)cc2C1=O`: the cytotoxicity call with HSkMC was “inactive”. In addition, the cytotoxicity call in the test with HepG2 was “active”. The growth inhibition call in the test on S. aureus RN4220 is “inactive”.
As to `C[C@@H]1CCCCO[C@H](CN(C)S(C)(=O)=O)[C@@H](C)CN([C@@H](C)CO)C(=O)c2cc(NS(=O)(=O)c3cn(C)cn3)ccc2O1`, the cytotoxicity call in the test on HSkMC and with HepG2 was “inactive” throughout. For the same compound, the growth inhibition call with S. aureus RN4220 is “inactive”.
Consider `C[C@@H]1CCCCO[C@@H](CN(C)S(=O)(=O)c2cn(C)cn2)[C@@H](C)CN([C@@H](C)CO)C(=O)c2cc(NC(=O)Nc3ccc(C(F)(F)F)cc3)ccc2O1`, for which the cytotoxicity call in the test with HSkMC and with HepG2 was “inactive” in each case. Moreover, the growth inhibition call with S. aureus RN4220 was “inactive”.
`CC1=NN(c2ccc(C)c(C)c2)C(=O)C1=NNc1cccc(-c2cccc(C(=O)O)c2)c1O`: the cytotoxicity call in the test with HSkMC and in the test with HepG2 was “inactive” each time. The growth inhibition call with S. aureus RN4220 is “inactive”.
Take `C[C@@H]1CN([C@H](C)CO)C(=O)c2cc(NC(=O)c3ccccc3)ccc2O[C@@H](C)CCCCO[C@H]1CN(C)S(=O)(=O)c1ccc(Cl)cc1`: in the test on HSkMC (human skeletal muscle cells), the cytotoxicity call is “inactive”. In addition, the cytotoxicity call in the test on HepG2 is “active”. For the same compound, the growth inhibition call with S. aureus RN4220 was “inactive”.
Regarding `COc1ccc(NC(=O)N(C)C[C@H]2Oc3c(NC(=O)c4cc(C)nn4C)cccc3C(=O)N([C@@H](C)CO)C[C@@H]2C)cc1`, the cytotoxicity call with HSkMC and with HepG2 was “inactive” in each case. Also, in the test on S. aureus RN4220, the growth inhibition call is “inactive”.
With `Cc1noc(C)c1S(=O)(=O)N(C)C[C@H]1Oc2ccc(NS(=O)(=O)c3cn(C)cn3)cc2CC(=O)N([C@H](C)CO)C[C@H]1C`, the cytotoxicity call in the test with HSkMC and with HepG2 was “inactive” in each case. In addition, the growth inhibition call in the test with S. aureus RN4220 is “inactive”.
